Test results as given in patent CN117069831A (SHENZHEN BGI LIFE SCIENCE RES INSTITUTE, dated 2023).

Legend:
[1] = target: SARS-CoV-2 野生型假病毒 (SARS-CoV-2); experiment: cell-based or functional assay
[2] = target: T1, 非典SARS-CoV-1 spike RBD (SARS-CoV-1); experiment: ELISA on coated SARS-CoV-1 RBD, anti human IgG HRP
T1 construct: domain: RBD; also called 非典病毒RBD; 非典SARS-CoV-1RBD

B1: R-30-FC (Fc fusion)
chain: QVQLQESGGGLVQSGGSLRLSCTASGGIIRLNSMGWYRQAPGKQREPVATIVSDVGTNYADSVKGRFTISRDNAKNTIYLQMNSLKFEDTAVYYCVADRAFVLRGEYEYWGQGTQVTVSS[letters of human IgG1 Fc omitted]
notes: also called R-30-FC双价纳米抗体; 双价纳米抗体
假病毒中和 IC50 (luciferase signal, Opti-HEK293/ACE2 cells) [1]: 1.64 nM
EC50 [2]: ≤ 0.0126 nM
